Test results reported in the supplement of paper PMC11417369.
This is one part of the list.

System: PfAP2-HC AP2 domain (GST-tagged)
Assay: gcPBM binding intensity (ln(normalized median fluorescence intensity)); higher = stronger DNA binding
How it was run: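 An Agilent 4 × 180k array of primer-extended double-stranded 36-bp intergenic genomic probes, with negative controls, was incubated for 1 h with GST-tagged P. falciparum DNA-binding domains expressed in E. coli. Alexa488 anti-GST antibody detected bound protein, scanned at 488 nm. Binding intensity is the highest Masliner-normalised natural-log median intensity across replicate spots of either probe orientation.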

Row | Sequence | gcPBM binding intensity (ln)
1 | TAAACCAAACAATTATGTATAAGATGTATATATATA [GTGCAC_negctrl_site438] | 9.69
2 | AAAAAAAAAAGAACCCGTACATAAATAATATATATA [XGTACX_site164] | 9.73
3 | TTTTTTTTTTCTTAGGTGCAAAAAATAAGTATATAT [GTGCAC_site9394] | 9.41
4 | TTTTTTTTGTATTAATGTACATATAACTTTTTTTTT [XGTACX_site7903] | 9.5
5 | TAAAAAATAAAATAATGTACATATGAATTATATATT [XGTACX_site8398] | 9.68
6 | AAAAAAAAAAAAGAAACACACACATTTGTATATAAT [CACACA_site8648] | 10.4
7 | TATAGTTATATTAGAAGTACTTCATTTTAACATATT [XGTACX_site7101] | 9.55
8 | GAAACATAAAAATATATTGAAATAGTATCATGGGTA [CACACA_negctrl_site352] | 9.7
9 | TTAATTACATGTTATTGTACGTATTTTCTATCTATC [XGTACX_site844] | 9.77
10 | CATACAGACGAACACACACACATATAAATATAAATA [CACACA_site6443] | 10.2
11 | AACCACATGGTGTAATGTACATTACCTTAACAATAA [XGTACX_site3055] | 9.75
12 | AAATATTATATATATACACACACACCGGCATGCACA [CACACA_site7916] | 10.2
13 | TATTATTTTTTTTTTTGTACATATATGTATATATAT [XGTACX_site8471] | 9.71
14 | TATAATAAAATTGGTAGTACATTAATTTATGTATAG [XGTACX_site3059] | 9.64
15 | AAAAAAATTCTTGGCGCACACACTTTAAAAATTAAA [CACACA_site597] | 9.94
16 | AAGGATTACAAAAAAAGTACAAATGGATTTTTTCCC [XGTACX_site8905] | 9.55
17 | CTTACAAATAAACAACGTACTTATTCGAATTATGCT [XGTACX_site2431] | 9.63
18 | GTTTTAAAATTAAATATTATGGCATAATTCAAGAAA [GTGCAC_negctrl_site721] | 9.45
19 | AAAATTTTTTAACACTGTACTTGTAATATTAAAACT [XGTACX_site8369] | 9.59
20 | AAATGCGCCATGTGTACACATATATATATATATATA [CACACA_site4649] | 10.1
21 | TACATATATAAAAATTGTACACTTCATAAGAAAAAA [XGTACX_site4347] | 9.58
22 | TTAAATAAGTTCTTCACACATATATATATATATATA [CACACA_site4742] | 9.67
23 | TTTTTATATTATTTAATGAGAAATAATTATAAACAA [CACACA_negctrl_site553] | 9.27

Row | Sequence | gcPBM binding intensity (ln)
24 | AAAAATATTATGATGTTTATTAGAAAGGAAAAAACT [CACACA_negctrl_site1417] | 9.56
25 | ATGTGATGTTATATATGTACTTATTTTTTAATAAGG [XGTACX_site1786] | 9.59
26 | TCGGTATCTGTTCAAAGTACACATTTGTATACAAAA [XGTACX_site1890] | 9.47
27 | ACACTATCTTAGATTTGTACATATTTATATATGTAT [XGTACX_site8739] | 9.82
28 | TATATAACATATGGGACACACATGCAACTGTTATAT [CACACA_site3792] | 9.91
29 | TATTTTTACAATGGTAGTACCATTTTGAATCTTTGT [XGTACX_site6092] | 9.6
30 | CACCCGCACGTATTTGCACACATTGCCACGTAATTA [CACACA_site5786] | 10
31 | TGCTTATCCATTTCTACACACAAAAAAAAAAAAAAA [CACACA_site37] | 9.5
32 | AAATGGGTTTATTTAACACACAAAAGAAAAAATATA [CACACA_site1938] | 9.77
33 | TATATATATTTATGTTGTACAAAATATTATTACGTA [XGTACX_site5384] | 9.56
34 | TTATATTATAACAAACGTACGAATTTTATACAAATA [XGTACX_site7258] | 9.58
35 | ATATATATATATATATGTACATATATACATATATGT [XGTACX_site1521] | 10.2
36 | TTTTTTTTTTTTTGATGTACAATAATTAAAGAGTAA [XGTACX_site8403] | 9.2
37 | AATAACTATATATGTGTGCACAAAAATTTGACATAA | 10.1
38 | AGTAGTCTGGAGAAGAGTACATAGTTTCTGGTAGCT [XGTACX_site2023] | 9.64
39 | AGTTTTTATTAAAACAAAATTTAATTATAACGTTGA [XGTACX_negctrl_site298] | 9.32
40 | CGTAGCCCCACTAACACACACAAATATACTCAATCA [CACACA_site5587] | 10.3
41 | TTATATGTATGAACAAGTACATGCTATAATTATAAA [XGTACX_site1399] | 9.52
42 | TATATATATATATACACACATACATATATATATTTG [CACACA_site857] | 9.82
43 | AACATATACACGAACACACACACATATATATATATA [CACACA_site502] | 11.6
44 | AAAACAAATGAGTACACACACATAAAAATTGAAAAT [CACACA_site199] | 10.2
45 | TAAAGAAAAAAATGTTGTACTTTATGAAACATATTT [XGTACX_site412] | 9.46
46 | ATATTTACCATTGTATGTACATATATAAAATATATC [XGTACX_site3237] | 9.69

Row | Sequence | gcPBM binding intensity (ln)
47 | GTATATATATATATATGTACATATTTAGAGTTCTGT [XGTACX_site5357] | 9.67
48 | TTTATTTTCATATGAACACACATATATATATTATAA [CACACA_site2369] | 9.94
49 | TGTTCTGAACGGTTCATGCACTTTTTTTTGTTAATT | 9.65
50 | CTGTTTTTGTTTTAAAGTACATTGTTCAATATACAT [XGTACX_site5288] | 9.8
51 | TACAATGTGGATAATTGTACAAAACCGATAAGAGGG [XGTACX_site6453] | 9.89
52 | TATATTCTACAAGAATTATGAATTGTCAGACCAAAT [CACACA_negctrl_site1101] | 9.34
53 | TTATATACCCTAATATGTTTTATTATTATTATATAT [TGCATGCA_negctrl_site6] | 9.77
54 | ATATAAATAATATAAATACACACTAAAAAAAATATA [CACACA_site542] | 9.84
55 | TAAACCTTAAAATATTTCTCATGTTTAACTTATATT [GTGCAC_negctrl_site233] | 9.56
56 | AAGAAAAACTTTACGTGTACCAAACATCCTGCCGAC [XGTACX_site4895] | 9.83
57 | GTATTCTACAGACACATACACACATATATATATATA [CACACA_site3427] | 10
58 | AAAAAATAATTGAAGTGTACGTACAATGATTTTACT [XGTACX_site7663] | 9.87
59 | GGGAGAAATTTATACATACACACATATATATATTAT [CACACA_site4039] | 9.92
60 | TTATAATATTGTGGTATACACACCTTACAAAAAGGT [CACACA_site2878] | 9.78
61 | TTATAAAAAAAAAAAAAAAATATATATATATATATA [XGTACX_negctrl_site592] | 9.13
62 | AAAAAATAATAATAAAATGAATAGATATGTATTTAT [TGCATGCA_negctrl_site210] | 9.75
63 | AATAATATATATTGTACACACAAAATGGGAAAAAAA [CACACA_site5100] | 10
64 | ATATATATATATATTTGTACAGAAAATATTTTAATA [XGTACX_site3706] | 9.64
65 | AACATATTATCTTGTGAAAATAATATAAGTCACATT [TGCATGCA_negctrl_site339] | 9.7
66 | AGCAGAGTTACAATTTGTACGTAATTGATATAGATA [XGTACX_site4051] | 9.62
67 | ACAAAATGTAAATAAACACACATATATATATATATA [CACACA_site1281] | 9.85
68 | ATAATTTATATTCAGAAACACACGAAAAAAAAAAAT [CACACA_site1296] | 9.77
69 | AACTAAACAAAAGTTACACACATCATACGATATTAT [CACACA_site3180] | 9.81

Row | Sequence | gcPBM binding intensity (ln)
70 | TATATTATATACGTCTGTACACAAATGAGAGGTAAA [XGTACX_site5538] | 9.68
71 | ACCATATAATTTTTTTGTACATAATGATTTTTTTTT [XGTACX_site1104] | 9.78
72 | ATGTTAAGAATAATTAGTACTTACATATGTATAATA [XGTACX_site4419] | 9.54
73 | TAAATATTTTATTGTACACACTTTTTATGAATGATG [CACACA_site5694] | 9.73
74 | ATATCCCATATGTAATGTACTTACACTTTCTTAATT [XGTACX_site7020] | 9.87
75 | AATATTTAAAACAAATCACACATGTATCCATAAATG [CACACA_site5308] | 9.67
76 | ACATAAAATAAATATACACACATATGTATATATTAT [CACACA_site3041] | 9.9
77 | ATAAAATATATATGCACACACATATATATTTCATAC [CACACA_site3547] | 10.2
78 | ATATATATATATATGTGTACTTATAAATATATCTGT [XGTACX_site4337] | 9.68
79 | AAAAGAATTTAGAAGGCATGCACTTAAACATGGATA [TGCATGCA_site699] | 10.1
80 | ATATTTATATATATATGTACATATGTGTGTTTTTAT [XGTACX_site3956] | 9.91
81 | AAAAAAATAATGTACACACACATATCTGTTTATATA [CACACA_site4270] | 10.4
82 | ATATATAACTTTTCTTAACACACAAAAAACAAAAAT [CACACA_site8748] | 9.79
83 | TCATAAACATTATGCACACAAAAATAAAAAAAAATA [CACACA_site1115] | 10
84 | AGGGAATAATATTAATGTACATATATGAACTTGTTT [XGTACX_site6089] | 9.68
85 | TATAAAAAGGAAAAATAAAAATAAAAATAAAAATTA [CACACA_negctrl_site1822] | 9.44
86 | TCTTTTAAAAATTAAGTGCATGTCCTTATAACAAAA | 9.32
87 | AAAAAAAATTAGGAAACATGCATGTCCCGATAAATA [TGCATGCA_site149] | 9.74
88 | AGATATATTATTAGGTGTACTATAAAATAAATTCAC [XGTACX_site221] | 9.59
89 | CGAACAAACAAATAAACACACAAAAAAAGATATATA [CACACA_site6944] | 9.92
